# Laboratory results as given in PubChem BioAssay AID504832 (National Center for Advancing Translational Sciences (NCATS), 2011).
# The whole screen tested about 310,000 compounds, of which about 18,000 (5.8%) were called active. Inconclusive means that the source gave no clear call. Such entries were picked first, then a sample of the others. The call rests on the fitted dose curve; in most records, active means well fitted inhibition curve with a large enough effect; inconclusive means small, poorly fitted or top-dose-only effect, or another doubt; inactive means no such curve, though single readings can be large or run the other way. No potency is given beside an inconclusive call; the fits are too rough.
# Assay: Primary qHTS for delayed death inhibitors of the malarial parasite plastid, 48 hour incubation
# Conditions: P. falciparum luciferase growth in erythrocytes; series mostly up to 28.7 µM
# Method in brief: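 A one-generation exposure of luciferase-tagged malaria parasites in RPMI 1640/Albumax erythrocyte culture, 37 C and 5% CO2. Inhibition is inferred from decreased luminescence after adding detection reagent.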
# Potency means the concentration at half of the fitted maximal effect; tags describe the fitted curve by direction and shape.
row,Compound,Potency
1,CCOC(=O)c1ccc(NC(=S)NCCCN2CCCCC2)cc1,inactive
2,OC(c1ccccc1)(c1ccc(Cl)cc1)C1CN2CCC1CC2 (centres undefined),"inconclusive [inhibitor, partial curve, poor fit]"
3,NC(=O)C1CCN(c2nc(-c3ccccc3)nc3c2oc2ccccc23)CC1,inactive
4,COc1ccc(C2=NN(C(N)=S)C(c3ccco3)C2)cc1 (centres undefined),inactive
5,CCOC(=O)c1c(C=O)c2ccccc2n1Cc1ccccc1F,"inconclusive [inhibitor, single point]"
6,O=C(Nc1ccccc1Oc1cccnc1)C1CCCN(Cc2ccccc2O)C1 (centres undefined),active: 13.1 µM
7,O=C(C1CC(=O)N(c2ccc(Cl)cc2)C1)N1CCCCCC1 (centres undefined),inactive
8,O=C(CCCSc1nc2ccccc2[nH]1)NC(c1ccccc1)c1ccccc1,"inconclusive [inhibitor, single point]"
9,CCOC(=O)[C@H]1[C@H]2COc3ccc(C)cc3[C@@H]2N2C(=O)c3cc(F)ccc3NC(=O)[C@@]12C,"inconclusive [inhibitor, partial curve, poor fit]"
10,OC(COC(c1ccccc1)c1ccccc1)CN1CCOCC1 (centres undefined),inactive
11,Cc1cc(C)nc(SCC(=O)N/N=C/c2ccc3c(c2)OCO3)n1,inactive
12,Cc1csc(NC(=O)CSc2nnnn2C)n1,inactive
13,COC(=O)/C=C1\N/C(=N\c2nc(C)cc(C)n2)N(c2ccccc2)C1=O,"inconclusive [inhibitor, single point]"
14,O=C(O)c1nn(CC(=O)N(C2CCCCC2)C2CCCCC2)c(=O)c2ccccc12,inactive
15,COc1ccc(C)cc1N1CC(C(=O)Nc2ccccc2C(=O)NC2CC2)CC1=O (centres undefined),"inconclusive [inhibitor, single point]"
16,O=C(Nc1sc2c(c1C(=O)N1CCOCC1)CCCCC2)c1cccnc1,inactive
17,O=C1[C@@H]2Cc3c([nH]c4ccccc34)C(c3ccccc3)N2C(=O)CN1CCO (some centres undefined),inactive
18,CN(c1ccc(OCC(=O)OCC(=O)Nc2ccc(F)cc2)cc1)S(=O)(=O)c1ccc(Cl)cc1,inactive
19,O=C(NNC(=O)c1nn(-c2ccc(F)cc2)ccc1=O)c1ccccc1Cl,inactive
20,Cc1ccc(NC2Nc3cc(C)nn3S2)c(C)c1 (centres undefined),inactive
21,COc1ccc(CN2CC(=O)N(c3ccc(C)cc3)C2=S)cc1OC,"inconclusive [inhibitor, partial curve]"
22,CCc1ccccc1NC(=O)COc1ccc(C(=S)N2CCCC2)cc1,"inconclusive [inhibitor, single point]"
23,CCOC(=O)c1sc(=NC(=O)c2cccc(Br)c2)n(C)c1C,inactive
24,Cn1c(=O)n(CC(=O)O)c(=O)c2c1nc1n2CCCN1Cc1ccccc1,inactive
25,CCn1nc(C)c(/C=C/C(=O)Nc2ccc(C)cc2C)c1C,"inconclusive [inhibitor, single point]"

row,Compound,Potency
1,O=C(NCC1CCN(C(=O)c2ccc([N+](=O)[O-])cc2)CC1)c1ccc([N+](=O)[O-])cc1,"inconclusive [inhibitor, partial curve, poor fit]"
2,O=C1CC(/C=C/c2ccc([N+](=O)[O-])cc2)=Nc2ccccc2N1,"inconclusive [inhibitor, single point]"
3,N=c1n(CC(=O)c2cccc([N+](=O)[O-])c2)c2ccccc2n1Cc1ccccc1,"inconclusive [inhibitor, single point]"
4,COc1ccc(S(=O)(=O)N(C)c2ccc(C(=O)Nc3ccccc3C(=O)N3CCOCC3)cc2)cc1,"inconclusive [inhibitor, partial curve, poor fit]"
5,COC(=O)C1C(=O)C(C(=O)c2ccccc2)C(=O)CC1(C)C (centres undefined),"inconclusive [inhibitor, full curve, poor fit]"
6,Cc1ccccc1-n1cnc2c(sc3nc(N4CCOCC4)c4c(c32)CCCC4)c1=O,active: 10.4 µM
7,COc1ccccc1-c1cc(C(=O)N/N=C/c2sccc2C)c2ccccc2n1,active: 1.85 µM
8,CCOc1ccc2nc(NC(=O)Cn3cnc4c3c(=O)n(C)c(=O)n4C)sc2c1,inactive
9,O=C(CCS(=O)(=O)c1ccc(F)cc1)Nc1nc(-c2ccccn2)cs1,"inconclusive [inhibitor, single point]"
10,CCC(C)Nc1ccc(NC(C)CC)cc1 (centres undefined),active: 1.04 µM
11,OC(CNCC1CCCO1)Cn1c2ccc(Cl)cc2c2cc(Cl)ccc21 (centres undefined),active: 0.37 µM
12,CCC(CC)NC(=O)Nc1cccc(C)c1C,inactive
13,C/C(CC(=O)NC1CCCCCC1)=N\NC(=O)c1cnccn1,inactive
14,CC(Oc1ccc(C#N)cc1)C(=O)Nc1ccc(-n2cnnn2)cc1 (centres undefined),active: 4.65 µM
15,CC1=C(C(=O)Nc2ccccc2)C(c2cccs2)n2nnnc2N1 (centres undefined),"inconclusive [inhibitor, single point]"
16,Oc1cc2c(cc1C(c1ccc(Cl)c(Cl)c1)N1CCCC1)OCO2 (centres undefined),"inconclusive [inhibitor, full curve, poor fit]"
17,Cc1ccc(CSCC(=O)N(C)CC(=O)Nc2ccc(Cl)c(Cl)c2)cc1,"inconclusive [inhibitor, single point]"
18,Fc1ccccc1NC(=S)Nc1ccc(Br)cc1,inactive
19,CCCCn1c(N)c(-c2nc3ccccc3o2)c2c([N+](=O)[O-])nn(CC)c(=O)c21,inactive
20,O=C(Nc1ncccn1)c1ccc(C(F)(F)F)cc1,inactive
21,O=C(Nc1nc(-c2ccccc2)cs1)c1ccc(N2CCOCC2)c([N+](=O)[O-])c1,"inconclusive [inhibitor, partial curve]"
22,COc1ccc(-n2c(SCC(=O)NCc3ccco3)nc3c([nH]c4ccccc43)c2=O)cc1,"inconclusive [inhibitor, partial curve, poor fit]"
23,CCc1ccc(-c2cc(C)no2)cc1S(=O)(=O)N1CCN(c2cc(C)ccc2C)CC1,active: 13.1 µM
24,CCc1c(C(C)=O)oc2ccc3c(C)cc(=O)oc3c12,"inconclusive [inhibitor, full curve, poor fit]"
25,c1ccc(CN2CCN(c3nc(NCc4ccco4)c4ccccc4n3)CC2)cc1,"inconclusive [inhibitor, full curve, poor fit]"

row,Compound,Potency
1,CC(C)[C@@H](C(=O)NCC1CCCO1)N1C(=O)N2CCc3c([nH]c4ccccc34)[C@@]2(C)C1=O (some centres undefined),"inconclusive [inhibitor, partial curve, poor fit]"
2,O=C(O)[C@@H]1CCCN1C(=O)c1ccccc1N1C(=O)[C@@H]2Cc3c([nH]c4ccccc34)C(c3cccc(Cl)c3)N2C1=O (some centres undefined),"inconclusive [inhibitor, partial curve]"
3,COc1cc(C(=O)Nc2ccc(Cl)c(C(F)(F)F)c2)cc(OC)c1OC,active: 13.1 µM
4,CCN(c1ccccc1)S(=O)(=O)c1ccc(Cl)c(C(=O)NCCc2ccc(OC)cc2)c1,inactive
5,Cc1nc(SCC(=O)N(C)C2(C#N)CCCCC2)c2ccccc2n1,"inconclusive [inhibitor, single point]"
6,N#Cc1ccccc1COC(=O)c1ccc2c(c1)OCCO2,inactive
7,Cc1nnc(NC(=O)CSc2nnc(-c3ccccc3)n2C)s1,"inconclusive [inhibitor, partial curve, poor fit]"
8,CN(C)C(=O)c1ccc(Nc2nc(-c3cccs3)nc3ccccc23)cc1,active: 10.4 µM
9,Cc1cc(OCc2ccc([N+](=O)[O-])cc2)c2c3c(c(=O)oc2c1)CCCC3,"inconclusive [inhibitor, single point]"
10,COc1ccc(Nc2cc(C)nc(N3CCOCC3)n2)cc1,inactive
11,Cc1cccc(C(=O)N/N=C2/SCC(=O)N2Cc2ccccc2)c1,inactive
12,O=C(C1CCN(S(=O)(=O)c2ccc3ccccc3c2)CC1)N1CCN(c2ncccn2)CC1,"inconclusive [inhibitor, single point]"
13,O=C(Nc1ccc(S(=O)(=O)N2CCOCC2)cc1)c1ccc(Cl)cc1,"inconclusive [inhibitor, single point]"
14,Cc1nnc(SC(C)C#N)n1-c1ccccc1 (centres undefined),inactive
15,Cn1c(N)c(C(=O)c2cc(-c3ccccc3)nc3ccccc23)c(=O)n(C)c1=O,"inconclusive [inhibitor, single point]"
16,Cc1ccc(Nc2ncnc3sc(C)c(C)c23)cc1C,inactive
17,CC1CCCC(C)N1C(=O)CSc1nnnn1Cc1ccccc1 (centres undefined),"inconclusive [inhibitor, full curve, poor fit]"
18,O=C(CSc1nn(-c2ccccc2)c(=S)s1)Nn1cnnc1,inactive
19,CCOc1ccc(NC(=O)Cc2c(O)c3ccccc3[nH]c2=O)cc1,active: 2.94 µM
20,O=C(NCC1CCCO1)c1ccc(S(=O)(=O)Nc2ccccc2F)cc1 (centres undefined),"inconclusive [inhibitor, single point]"
21,O=C(COc1cccc2c1CCN(Cc1ccc(Br)cc1)C2=O)N1CCOCC1,"inconclusive [inhibitor, full curve, poor fit]"
22,N/C(=N\C(=S)Nc1ccccc1)c1ccccc1,inactive
23,COc1cccc(NC(=O)CN(C)C(=O)c2cc(-c3ccc(F)cc3)nc3ccccc23)c1,"inconclusive [inhibitor, partial curve]"
24,O=C1[C@H]2[C@@H](c3ccc(F)cc3)N3C(=O)N(c4cccc(Br)c4)C(=O)[C@@]3(Cc3ccccc3)[C@H]2C(=O)N1C1CCCCC1,active: 4.15 µM
